# The BET-seq Pho4 binding data (Le et al. 2018)
# The other results are listed elsewhere or left out. Values were computed here from the reads of four pooled replicates and scatter widely.
# Target: T1, Pho4 (S. cerevisiae) (UniProt P07270)
# T1 sequence: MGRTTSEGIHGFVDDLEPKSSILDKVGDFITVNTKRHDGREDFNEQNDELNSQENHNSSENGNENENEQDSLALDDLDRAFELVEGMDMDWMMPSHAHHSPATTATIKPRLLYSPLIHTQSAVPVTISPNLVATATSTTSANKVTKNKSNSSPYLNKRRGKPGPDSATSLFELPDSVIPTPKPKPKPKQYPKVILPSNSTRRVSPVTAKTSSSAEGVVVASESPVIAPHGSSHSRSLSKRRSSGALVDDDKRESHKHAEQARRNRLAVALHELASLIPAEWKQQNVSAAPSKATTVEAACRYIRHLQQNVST
# Experiment: relative binding free energy (BET-seq); higher = weaker binding
# Conditions: reference: library average
row,Sequence,relative binding free energy [kcal/mol]
1,ACTGACACGTGTAGTG,0.15
2,TGGGGCACGTGATTAG,0
3,CTCAGCACGTGGGCGG,-0.19
4,ATTGACACGTGAGTAA,0.25
5,GGTGCCACGTGTAAGG,0.14
6,TTTATCACGTGGCTTG,0.17
7,TTAACCACGTGTGTGT,-0.2
8,CTATTCACGTGTTATT,0.07
9,GGTTGCACGTGAGGTC,0.23
10,TTTGACACGTGACTGT,0.05
11,TGCCTCACGTGTGGTA,0.2
12,TTTTGCACGTGGACTG,-0.06
13,TGGCCCACGTGTCGGG,-0.1
14,TTTTACACGTGATCTG,0.23
15,AGCTTCACGTGTAGTA,0.33
16,GGCTGCACGTGTGGTG,0.05
17,GTCATCACGTGGTTAG,0.11
18,GCGTGCACGTGTGAAG,0.05
19,GCATGCACGTGGTGTT,-0.09
20,AGTAACACGTGATGTT,0.03
21,TGGATCACGTGATGGG,0.32
22,TTCGTCACGTGAGAGA,0.27
23,CGAGGCACGTGGGGCT,-0.22
24,ATGCTCACGTGTAGGA,0.13
25,CTTAGCACGTGTGGTA,0.03
26,ATCTACACGTGTTGTG,0.14

row,Sequence,relative binding free energy [kcal/mol]
1,GAATTCACGTGGATTA,0.32
2,AGGTGCACGTGTATCA,0.03
3,ACTCGCACGTGTAGGG,-0.07
4,TGGGACACGTGAGGTG,0.2
5,AGAATCACGTGTATTG,0.07
6,AGGGACACGTGCGTAT,-0.12
7,TGTTGCACGTGCCGGC,0.06
8,TGTCCCACGTGATGGT,0.02
9,TGTGGCACGTGACGGC,0.03
10,AAGAACACGTGGGGAG,-0.08
11,TGTGGCACGTGCGGGA,-0.12
12,CCTGTCACGTGGGGTT,-0.02
13,TATTTCACGTGGTACA,0.2
14,GATGCCACGTGATGTT,0.1
15,CTATCCACGTGTTGGG,0.14
16,CGGGCCACGTGAAGTT,0.41
17,TGGGGCACGTGAGTCC,0.19
18,CAGTGCACGTGTTTTT,-0.14
19,TGAAGCACGTGCGGAG,-0.09
20,TTCGCCACGTGGGGAG,-0.24
21,TGGCTCACGTGTTGCG,0.2
22,GTTATCACGTGACTTT,0.28
23,CGGTGCACGTGGATAG,-0.06
24,TGCGTCACGTGGGGTC,-0.05
25,GGTTACACGTGGGAGG,0.12
26,TGAGACACGTGGTGTT,0.09

row,Sequence,relative binding free energy [kcal/mol]
1,CCGGGCACGTGAGGGA,0.05
2,GGAGACACGTGTAAGG,0.07
3,TGTCTCACGTGGTTCA,0.12
4,CGGGACACGTGGGAGT,0.04
5,TTTGTCACGTGTCTAG,0.1
6,GGTGGCACGTGAGTCA,0.15
7,GGGGTCACGTGCAGGA,0.01
8,GGGTACACGTGGGCTT,0.01
9,TTTTACACGTGGAAAT,0.19
10,GAGAGCACGTGCGAGG,-0.12
11,AATGGCACGTGTTGAG,0
12,TGTGACACGTGGGTAC,-0.16
13,ATTGTCACGTGGTGGG,0.1
14,TTGTGCACGTGACGTG,0.15
15,ATTGTCACGTGAGTTG,0.18
16,ATTGGCACGTGTGTTA,-0.01
17,TGCGGCACGTGGAGGA,-0.06
18,AGTTACACGTGAAGTT,0.35
19,ATGGGCACGTGGATTA,-0.09
20,GCATTCACGTGGGAGG,0.15
21,GAGAGCACGTGGTTTG,-0.12
22,TTAGGCACGTGGACGG,-0.09
23,TTGTGCACGTGAAGGC,0.22
24,GGTATCACGTGGTTGG,0.19
25,CCTGGCACGTGCTGGG,-0.19
26,TTTTTCACGTGATTTC,0.38

row,Sequence,relative binding free energy [kcal/mol]
1,TCGGTCACGTGTGCTG,0.16
2,GGGAACACGTGAAGGC,0.38
3,GGGTACACGTGTGGGT,0.23
4,GTTTTCACGTGAAACG,0.43
5,CGTTGCACGTGGTTGA,-0.11
6,AAGAGCACGTGAGGAT,0.15
7,TCGAGCACGTGTGGGA,-0.2
8,GTGCACACGTGATGGG,0.05
9,AATGACACGTGTTGTG,0
10,TTCGACACGTGTGGCG,0.07
11,GTCTTCACGTGGCTGT,0.24
12,GTAAGCACGTGTGTCT,-0.03
13,TGGTCCACGTGATTGG,0.24
14,TTAGGCACGTGCTTAG,-0.1
15,GCTGGCACGTGTTTTT,0.15
16,TTGTTCACGTGGCGAG,0.2
17,TGTAGCACGTGCGATG,-0.05
18,AATTCCACGTGGTGTG,-0.12
19,GTTGTCACGTGAGCCG,0.39
20,CTGTTCACGTGTGGAA,0.41
21,TAAGGCACGTGTTATG,-0.07
22,ATGGTCACGTGATGCA,0.24
23,GTTATCACGTGGCTTG,0.14
24,TGAGGCACGTGGTTGC,-0.13
25,TGACTCACGTGGTTGA,0.18
26,TATGGCACGTGGGTGG,-0.17

row,Sequence,relative binding free energy [kcal/mol]
1,TGGGGCACGTGAATAT,0.2
2,GTTGTCACGTGTTCAG,0.12
3,TAGATCACGTGCGGCG,0.32
4,TTGTGCACGTGGGGGT,-0.07
5,TTCAACACGTGGAGTT,0.06
6,TTTTCCACGTGAAGGA,0.36
7,TAGTACACGTGGTCTG,-0.11
8,TCGCTCACGTGCGTGG,0.21
9,CTATTCACGTGGTATT,0.19
10,CAGGTCACGTGGCGTG,-0.08
11,GTAGACACGTGGTTAT,-0.07
12,AAGTACACGTGGTATG,0
13,AAGTTCACGTGCGGGA,0.17
14,GTTATCACGTGGAGAT,0.36
15,AGTTGCACGTGGGGCC,-0.14
16,CTGTGCACGTGGGGGG,-0.23
17,TTGGTCACGTGGATGG,0.08
18,ATGGGCACGTGCGCGA,-0.16
19,GGTATCACGTGTAAAA,0.23
20,GGATACACGTGAAGGT,0.17
21,GTATCCACGTGCGGGT,0.01
22,GTGGACACGTGTTTCA,0
23,TTTGGCACGTGTATCA,-0.03
24,TTGTTCACGTGGTGGG,0.28
25,GCCGGCACGTGTGGAG,0.01
26,GCGAGCACGTGTTAGG,-0.13

row,Sequence,relative binding free energy [kcal/mol]
1,TTAGTCACGTGGTGCC,-0.02
2,AATCACACGTGTTTGG,0.03
3,AGGATCACGTGGCTAG,0.12
4,CAGTTCACGTGATAGG,0.22
5,AAGGACACGTGATGTT,0.21
6,TTTCACACGTGTAGGC,0.18
7,GGAGTCACGTGTCGGA,0.28
8,TGCTACACGTGCAGGG,0.15
9,CATAGCACGTGCGTGT,-0.06
10,TTTTGCACGTGTGGGA,0.09
11,TTACTCACGTGGGTAT,0.04
12,GGAAACACGTGAGGTT,0.17
13,TTAGCCACGTGGAGGG,0.05
14,TGGAGCACGTGGTCTA,-0.16
15,GAGTGCACGTGTTGCA,0.03
16,TGTTGCACGTGGACTG,-0.05
17,TGAAACACGTGTTTAG,0.06
18,GCTTACACGTGGTGGA,0.05
19,TCGGGCACGTGTATTG,-0.24
20,TTGTTCACGTGCGTGG,0.3
21,TTTATCACGTGTTAAA,0.21
22,TTGGGCACGTGCTACT,-0.04
23,GCCGGCACGTGGTGGT,-0.15
24,TGCCGCACGTGGTTGT,-0.14
25,ACATGCACGTGATTTT,0.05
26,TATATCACGTGTTGAT,0.12

row,Sequence,relative binding free energy [kcal/mol]
1,GTGATCACGTGATAGA,0.48
2,TAATGCACGTGTGCGG,-0.05
3,TTGTTCACGTGGGCGA,0.09
4,AAAGGCACGTGGAATA,0.09
5,TTACACACGTGTGTGT,0.01
6,TAAGGCACGTGGGACA,-0.23
7,CATTTCACGTGAGTTG,0.23
8,TGTTGCACGTGCTGCA,-0.18
9,GTCTTCACGTGAAGGT,0.39
10,TTAGTCACGTGGGATT,0.06
11,TTGGTCACGTGGGAGT,0.01
12,TTATTCACGTGACAGT,0.16
13,GGAATCACGTGTAGGC,0.19
14,GTTTGCACGTGCGAGA,0.05
15,ACGGGCACGTGAGAGG,0.18
16,TTTTTCACGTGCGAAG,0.29
17,TTATTCACGTGGGTCG,0.2
18,TTGAGCACGTGCTCGG,-0.2
19,AATTGCACGTGCTATT,0.1
20,AGACTCACGTGGTGTA,0.12
21,TTGTTCACGTGGTCCG,0.31
22,GGTCACACGTGGAGGA,0.11
23,AGGGTCACGTGAAGAT,0.4
24,AAGTGCACGTGGAATG,-0.09
25,TAATGCACGTGAGGTT,0.13
26,TTGAGCACGTGGGTGT,-0.16

row,Sequence,relative binding free energy [kcal/mol]
1,GAGTACACGTGATGGG,0.28
2,GATAGCACGTGGTAGG,-0.13
3,GTGTTCACGTGAGGTG,0.5
4,GGAGGCACGTGGATTG,-0.11
5,TGGGGCACGTGATTCT,-0.09
6,AGTCGCACGTGGCGAG,-0.1
7,TGTTGCACGTGAGTAC,0.17
8,AGTACCACGTGTTGTG,-0.11
9,TCGTACACGTGATTGA,0.31
10,TTCGACACGTGGGTCG,-0.01
11,TCGATCACGTGTAAGT,0.27
12,GAGTTCACGTGGAATT,0.41
13,AAGAGCACGTGAATGT,0.22
14,AGTTCCACGTGGTGGC,0.08
15,CGCTGCACGTGTTGGT,0.04
16,TGTTTCACGTGAGGCT,0.31
17,GGAGCCACGTGTGATT,0.17
18,AAATGCACGTGTCTGG,0
19,GTTTACACGTGTTGAT,0.09
20,TGCTTCACGTGGGAAT,0.2
21,GTGGGCACGTGCGTTA,-0.26
22,CTTAGCACGTGTCGTT,-0.01
23,TTGGGCACGTGTTAGC,0
24,GTTTACACGTGGAGGT,0.21
25,TCTGGCACGTGGGACG,-0.14
26,ATTGTCACGTGTGAGG,0.23

row,Sequence,relative binding free energy [kcal/mol]
1,TAGTGCACGTGAGGGT,0.24
2,TTATGCACGTGACAGT,0.09
3,CATTGCACGTGAAGGG,0.29
4,AGGAGCACGTGAGATA,0.33
5,GGATACACGTGTGGAT,0.08
6,TTAAGCACGTGTTCGG,-0.02
7,TTTAGCACGTGTCGTT,0
8,TAAGGCACGTGGTTGG,-0.2
9,GTCATCACGTGTTGCG,0.28
10,TTTGACACGTGAGGTT,0.19
11,TTAATCACGTGGAAAG,0.29
12,ATTGTCACGTGTCGTC,0.1
13,TGAGACACGTGTGTTT,-0.07
14,GCGTTCACGTGTAGGG,0.23
15,CGGTTCACGTGGCATT,0.17
16,AAGAGCACGTGGATGG,-0.19
17,TAGGACACGTGCTTTT,-0.07
18,ATTTACACGTGGTAGA,0.1
19,CAGGGCACGTGTTATG,0.03
20,GGGACCACGTGGGGCG,-0.18
21,GATGGCACGTGCTATG,0.02
22,TTGAACACGTGTTATA,-0.04
